According to the RNAGym collection of RNA variant scans (doi:10.7554/elife.90254):
The source gives no read counts; variants with many changes may rest on few reads.

B1: LINE1-mini (parent)
chain: GGCAGAGCUCAACACAGCGUGGCAAAGUGGCUGUGGCUAGACUGCC

Variants of: B1
Test: self-cleavage, relative activity (ratio to wild type); higher = more cleavage; in vitro, sequencing; the parent is a self-cleaving ribozyme

Variant	self-cleavage
GGCAGGGCCCAACACCGCGUGGCAAAGUGGCUGUGACUAGACUGCA	0.01
GACAAAGCUCAACACAGCGUGGCAAAGUGGCUGUGGCUAGACUUCC	0.26
GGCAGAGCUCAAAACAGCGUGGCAAAGUGACUGUGGCAAGAUUGCC	0.09
GGCAGAGCUCAACACAGCCUGGCAAACUGGCUACGGCUAGACUGCC	0.02
GCCAGAGAUCUACACAGUGUGGCAAACUGGCUGUGGCUAGACUGCC	0.69
AGCAGAGCUCAACAUAGCGUGGCAAACUGGCUGUGGCAAGACUGCC	0.57
GGCAGAGCUCAACACAGCCUGGCAAAGUGCCUGUGGCUUGACUUCC	0.06
GGCAGAGGUCAACACAGCGUGGCAAAGUGGCUGUUGCUAGCCUGCC	0.06
GGCAGAGCUCAACACAGCGUGAAAAAGUUGCUGUGGCUAGACUGCC	0.62
GGCAGAGCUCAGAACAGGGUGGCAAAGACGCUGUAGCUAGACUGCC	0.03
GGCAGAGCUCGACACAGCGAGGCAAAGUGGCUAUGGCUAGACUGCC	0.03
GGCAGAGCUGAACACAGCGUGGCAAAAUGGCUGUGCCUAGGCUGAC	0
GGCAGACCUCAACACAGCGUGGCAAAGUGGCUGAGGCUUGACUGCC	0
GGCAGAGAUCAACACAGCGUGGCAAAGUGGCUGUGGGUAGACUUCC	0.13
GGCAGAGCUCAAAACAGCGUGGCAAAGUGGCUGUGGCUAUAGUGCC	0.14
UGCAGAGCUCAGCACAGCGUGGCAAAGUUGAUGUGGCUAGACUGCC	0.02
UGAAGAGCUCAACACUGCGGGGCAAAGUGGCUGAGGCUAGACUGCC	0.14
GCCAGAGAUCAACACAGCGUGGCAAAGUGGCUGUGGCUAGUCUGCC	0.21
GCCAGAGUUUAACACAGCGUGGCAAAGUGGCUGUGGCUAGUCUGCC	0.06

Variant	self-cleavage
UUCAGAGAUCAGCACAGCGUGGCAAAGUGGCUGAGGCUAGACUGCC	0
GGCAGAGAUCGACACAGCUUGGCAAAGUGGUUGUGGCUAGACUGCA	0.02
GGCAGUGCUCCACACAGCGUGGCAAAGUGGCUGUGCCUAGACUGCC	0.04
GGCAAAGCUUAACACAGCUUGGCAAAGUGGCUGUGGCUAGACUGCC	0.06
GGCAGAGCUCAACACAGCGUGGCAAAGUGGCUCAUGCUAGACUGCA	0.07
AGCAGAGAUCAACUCAGCGUGGCAAAGAGGCUGUGGCUAGACUUCC	0.23
GGCAGACCUCAACACAGCGUGGCGAAGCGGCUGUUGCUAGACUGCC	0.5
GGCAGAGCUCAACACAGCUUGGCAAAGUGGCUGUGGCUAGACCGCA	0.08
GGCAGAGCUCAACACAGCGUAGGAAAACGGCUGUGACGAGACAGCC	0
GGCAGAGUUCAACACAGUGUGGCAAAGUGGCUGUGGCUGGACUGCC	0.02
AGCAGAGCUCAACACAGCGUGGCUAAGUGGCUGUGGCUACACUGCC	0.09
GGGAGAGCUCAACACAGCGCGGCAAAGUGGCUGUGGCGAGACUGCC	0.03
GGCAGAGCUAAACACAGCGUGGCAAAGUGUCUGUGGCUAGACCGCC	0.01
GGCAGAGCUCAACACGGCGUGGCAAAAUGGAUGUGACUCGACUGCC	0.03
GGAAGAGCUCAACACAGCGGGCCAAAGUGGCUGUCACUAGACUACC	0.06
GCCAGAGCUCAACACAACGUGGCAAAGUGGCUGUGGCUAGACUCCC	0.03
GGCAGAUCUCAACACAGCGUGGCAAAGUGGCCGUGGCUAGACUUCC	0.06
GGCAGAGCUCAACACAGCUUGGCAAAGUGGCAGUGGCCAGACUCCC	0.04
GGCAGAGCACAACACAGCGUGUCAAAUUGGCUGUCACUAGACUCCC	0.13

Variant	self-cleavage
GGCAGGGCUCAGCACAGCGUGGCAACGUGGCUGUGGCUAGACUGCC	0
GGCAGAGCUCAACACAGCCUGGCAAACAGGCUGUGGCUAGACUGCC	0.71
GGAAGAGCUCAGCACACCGUGGCAAUCUGGCUGUGGCUAGAGUGCU	0.01
GGCAGGGGUAAACACAGCGUGGCGAAGUGGCUGUGGCUAGACUGCC	0.01
GGCAGAGCUCAACAAAGCGUAGAAAAGUGGCUGUGGCUAGACUUCC	0.02
GGCAGAGCUGAACACAGCGUGGCGAAGUGGCGGUGGCUAGACUGCC	0.16
GGCAGAGCUCAACAAAGCGUUGCAAAGUGGAUGUGGCUAGACUACC	0.01
GGCAGCGCUCUAUACAGCGUGGCAAAGUGGCUGCGGCUAGACUGCU	0.03
GGCAGAGAUCAAAACUGCGUGGCAUAGUGGCUGUGGCCAGACUGCC	0.03
GGCAUAGCUCAACACAGCGUGACAAAGUGACUGUGGCUAGACUGCC	0.01
GGCACAGCGCAAUACAGCGUGUCAAAGUGGCUGUGGCUAGACUGCC	0.05
GGCAGAGCUCAAGACGGCGUGGCAAAGUGGCUAUGGCUAGAUUGCC	0
GGCGGAGCUCAACACAGCGUGGCAAAAUGGCUGUGGCUAGACUGGC	0.28
GGCAGAACUCAACACAGCGUGGCAAACUGGCUGUGGCUAGAAUGCC	0.04
GUCAGAGCUCAACACAGCGAGAUAAAGUGGCUGUGGCUAGACUGCC	0.14
GGCAGAGCUCAACACAACGUGGCAGAGUGGAUGUGGCUAGACUGCC	0.02
GACAGAGCUCAACACAGCGAGGCAAAGUGGCUGCGGCUAGACUGCA	0.13
GGCAGAGCUCAAUACUGCUUGGCAAAGGGGCUGUGGCUAGACUGCC	0.09
